Data as given in patent US12678425B2, “Methods for treating against viruses” (Howard University, priority 2019, dated 2026).

System: HSV-1 F strain expressing luciferase (R8411)
Test: Bioluminescence luciferase assay of HSV1-Luc proliferation in HEp-2 cells
Conditions: for inhibition of HSV-1 proliferation (luciferase signal): 1 μM
Description: The virus used in this diagram is an HSV-1 F strain expressing luciferase (R8411 mutant) under the control of the ICP27 promoter, and was a gift from Prof. Bernard Roizman (University of Chicago). HEp-2 cells were grown to 80-90% confluency in Dulbecco's Modified Eagle's medium (DMEM) supplemented with 10% fetal calf serum (PCS) and 1% penicillin-streptomycin (PS) and fungicide. The HSV-1 virus and the indicated concentration of compound(s) were added and incubated for 24 h (in panels A and B) and for 48 h (in panel C). The luciferase signals were imaged and quantified in a Perkin Elmer IVIS Spectrum Imaging system. […] High luminescence indicates high viral proliferation. […] Panel B is a bar graph of a luciferase signal as shown in panel A for HSV-1 with no virus, virus treated with DMSO, and virus treated with different concentrations of a representative compound within general formula (1). […] The compound(s) inhibit Y248 phosphorylation of RACK1 protein.
Hep-2 cells were incubated with the indicated compounds in the presence of HSV1-Luc virus at a concentration of 4×10^6 pfu/ml media (Panel A). Panel B depicts quantification of the luciferase signal from the samples in panel A. Signals from three replicates from two separate experiments were combined to generate the average and the standard error bar.
As an IRES-containing virus, an HSV-1 F strain expressing luciferase (R8411 mutant) under the control of the ICP27 promoter can be used. HEp-2 cells are grown to 80-90% confluency in Dulbecco's Modified Eagle's medium (DMEM) supplemented with 10% fetal calf serum (FCS) and 1% penicillin-streptomycin (PS) and fungicide. The HSV-1 virus and a concentration of an inhibitor compound(s) of a formulae herein are added and are incubated for 24 h and for 48 h (FIG. 11). The luciferase signals are imaged and are quantified in an imaging system, such as a Perkin Elmer IVIS Spectrum Imaging system. Inhibition against proliferation will be seen in a reduction in the luciferase signal.
(§1) To 80-90% confluent HEp-2 cells, HSV1-Luc (R8411) is added at a concentration of 2×10^6 pfu/ml along with indicated concentration of inhibitor compounds. After the described incubation period, luciferase activity is evaluated from bioluminescence images acquired by a Perkin Elmer IVIS Spectrum Imaging system immediately after adding luciferase substrate (D-luciferin, Gold Bio Technology) at a concentration of 400 μg/mL in medium. Bioluminescence intensity in different wells is quantified in units of photons per second per centimeter squared per steradian (p/s/cm^2/sr) by drawing a polygonal region of interest over the signals in images using Living Image 3.0 software (Caliper Life Sciences).
as §1, with “was” for “is”

How did the “inhibition of HSV-1 proliferation (luciferase signal)” value turn out when `Nn1c(S)nnc1-c1ccc(F)cc1` [SD-29] was run?
The value was “much less efficacy”.

How did the “inhibition of HSV1-Luc proliferation” value (10 μM) turn out when `Nc1nc2c(ncn2COCCO)c(=O)[nH]1` [acyclovir, reference compound] was run?
Its value is “showed inhibition”.

What does the source list for `Nn1c(S)nnc1-c1cc(Cl)cc(Cl)c1` [SD-29-14]?
inhibition of HSV-1 proliferation (luciferase signal): significantly inhibited; efficacy compared with acyclovir (HSV1-Luc, Hep-2 cells): efficacy at slightly higher level than that of acyclovir; combinatorial effect on HSV1-Luc proliferation (all concentrations of SD29-14 combined with 10 μM of acyclovir): supralinear effect; HSV-1 proliferation (luciferase signals), dose dependence (co-treatment with virus): strong inhibition of HSV-1 proliferation in a dose dependent manner; concentration from which efficacy against HSV-1 proliferation starts (in vitro, luciferase signal): 1 µM; improvement of starting effective concentration over SD-29 (in vitro, luciferase signal): 100 times
